Assay results taken from the supplement of paper PMC4967469.

Tests used:
Experiment in all cases: Viability of human cancer cell lines after 72 h of drug (GDSC screen)
FTI-277 = compound: COC(=O)[C@H](CCSC)NC(=O)c1ccc(NC[C@@H](N)CS)cc1-c1ccccc1 [FTI-277]; settings: top dose 1.024 µM; top dose inferred
Description: (§1)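 Human cancer cell lines in 384-well plates, medium with 10% serum, drug for 72 h over a 256-fold dose range (nine 2-fold or five 4-fold steps up to the top dose). Adherent lines were fixed and stained with the nucleic acid dye Syto60, suspension lines read with resazurin; signal relative to control wells, capped at 0 and 100%. One two-parameter sigmoid per drug and line, fitted in a mixed model over all curves with the slope shared within a line.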

Docetaxel = compound: CC(=O)O[C@@]12CO[C@@H]1C[C@H](O)[C@@]1(C)C(=O)[C@H](O)C3=C(C)[C@@H](OC(=O)[C@H](O)[C@@H](NC(=O)OC(C)(C)C)c4ccccc4)C[C@@](O)([C@@H](OC(=O)c4ccccc4)[C@H]21)C3(C)C [Docetaxel]; settings: top dose 0.0125 µM
Description: as §1

Belinostat = compound: O=C(/C=C/c1cccc(S(=O)(=O)Nc2ccccc2)c1)NO [Belinostat]; settings: top dose 20 µM; top dose inferred
Description: as §1

OSI-906 = compound: C[C@]1(O)C[C@@H](c2nc(-c3ccc4ccc(-c5ccccc5)nc4c3)c3c(N)nccn32)C1 [OSI-906]; settings: top dose 2.56 µM; top dose inferred
Description: as §1

JNK Inhibitor VIII = compound: CCOc1nc(NC(=O)Cc2cc(OC)ccc2OC)cc(N)c1C#N [JNK Inhibitor VIII]; settings: top dose 10 µM; top dose inferred
Description: as §1

AMG-706 = compound: CC1(C)CNc2cc(NC(=O)c3cccnc3NCc3ccncc3)ccc21 [AMG-706]; settings: top dose 2 µM; top dose inferred
Description: as §1

JQ1 = compound: Cc1sc2c(c1C)C(c1ccc(Cl)cc1)=N[C@@H](CC(=O)OC(C)(C)C)c1nnc(C)n1-2 [JQ1]
Description: as §1

Cyclopamine = compound: CC1=C2C[C@H]3[C@@H](CC=C4C[C@@H](O)CC[C@@]43C)[C@@H]2CC[C@]12O[C@@H]1C[C@H](C)CN[C@H]1[C@H]2C [Cyclopamine]; settings: top dose 16 µM; top dose inferred
Description: as §1

CGP-60474 = compound: OCCCNc1cc(-c2ccnc(Nc3cccc(Cl)c3)n2)ccn1 [CGP-60474]; settings: top dose 0.256 µM; top dose inferred
Description: as §1

JNJ-26854165 = compound: c1ccc2c(CCNc3ccc(Nc4ccncc4)cc3)c[nH]c2c1 [JNJ-26854165]; settings: top dose 10 µM
Description: as §1

NSC-207895 = compound: CN1CCN(c2ccc([N+](=O)[O-])c3no[n+]([O-])c23)CC1 [NSC-207895]; settings: top dose 20 µM; top dose inferred
Description: as §1

YM155 = compound: COCC[n+]1c2c(n(Cc3cnccn3)c1C)C(=O)c1ccccc1C2=O [YM155]; settings: top dose 5.12 µM
Description: as §1

SB-715992 = compound: Cc1ccc(C(=O)N(CCCN)[C@@H](c2nc3cc(Cl)ccc3c(=O)n2Cc2ccccc2)C(C)C)cc1 [SB-715992]; settings: top dose 0.128 µM; top dose inferred
Description: as §1

[1] = top dose 1 µM, screen: GDSC drug entry 1218, top dose inferred
[2] = top dose 2.56 µM, screen: GDSC drug entry 163

| Cell Line | AUC (FTI-277) | IC50 (FTI-277) | AUC (Docetaxel) | IC50 (Docetaxel) | AUC (Belinostat) | IC50 (Belinostat) | AUC (OSI-906) | IC50 (OSI-906) | AUC (JNK Inhibitor VIII) | IC50 (JNK Inhibitor VIII) | AUC (AMG-706) | IC50 (AMG-706) | AUC (JQ1; [1]) | IC50 (JQ1; [1]) | AUC (JQ1; [2]) | IC50 (JQ1; [2]) | AUC (Cyclopamine) | IC50 (Cyclopamine) | AUC (CGP-60474) | IC50 (CGP-60474) | AUC (JNJ-26854165) | IC50 (JNJ-26854165) | AUC (NSC-207895) | IC50 (NSC-207895) | AUC (YM155) | IC50 (YM155) | AUC (SB-715992) | IC50 (SB-715992) |
| --- | --- | --- | --- | --- | --- | --- | --- | --- | --- | --- | --- | --- | --- | --- | --- | --- | --- | --- | --- | --- | --- | --- | --- | --- | --- | --- | --- | --- |
| NCI-H1304 (small cell lung carcinoma, suspension) | 0.98 | > 1020 nM | 0.987 | > 12.5 nM | 0.746 | 6750 nM | 0.919 | > 2560 nM | 0.955 | > 10000 nM | 0.955 | > 2000 nM | 0.98 | > 1000 nM | 0.752 | 909 nM | 0.988 | > 16000 nM | 0.793 | 127 nM | 0.878 | > 10000 nM | 0.985 | > 20000 nM | 0.234 | 50.4 nM | 0.886 | > 128 nM |
| NCI-H1395 (lung adenocarcinoma, adherent) | 0.976 | > 1020 nM | 0.719 | 4.05 nM | 0.589 | 2370 nM | 0.982 | > 2560 nM | 0.974 | > 10000 nM | 0.982 | > 2000 nM | 0.97 | > 1000 nM | 0.982 | > 2560 nM | 0.963 | > 16000 nM | 0.739 | 98.7 nM | 0.836 | > 10000 nM | 0.963 | > 20000 nM | 0.282 | 62.3 nM | 0.925 | > 128 nM |
| NCI-H1417 (small cell lung carcinoma, suspension) | 0.971 | > 1020 nM | 0.866 | > 12.5 nM | 0.236 | 182 nM | 0.895 | > 2560 nM | 0.977 | > 10000 nM | 0.98 | > 2000 nM | 0.71 | 278 nM | 0.879 | > 2560 nM | 0.981 | > 16000 nM | 0.877 | > 256 nM | 0.61 | 1330 nM | 0.805 | 12500 nM | 0.046 | < 20 nM | 0.845 | 120 nM |
| NCI-H1436 (small cell lung carcinoma, suspension) | 0.966 | > 1020 nM | 0.974 | > 12.5 nM | 0.491 | 1180 nM | 0.986 | > 2560 nM | 0.985 | > 10000 nM | 0.964 | > 2000 nM | 0.98 | > 1000 nM | 0.93 | > 2560 nM | 0.986 | > 16000 nM | 0.839 | 212 nM | 0.983 | > 10000 nM | 0.776 | 9160 nM | 0.037 | < 20 nM | 0.702 | 32.3 nM |
| NCI-H1694 (small cell lung carcinoma, suspension) | 0.989 | > 1020 nM | 0.956 | > 12.5 nM | 0.292 | 324 nM | 0.969 | > 2560 nM | 0.986 | > 10000 nM | 0.988 | > 2000 nM | 0.972 | > 1000 nM | 0.879 | > 2560 nM | 0.982 | > 16000 nM | 0.88 | > 256 nM | 0.963 | > 10000 nM | 0.839 | 13500 nM | 0.072 | < 20 nM | 0.834 | 82.4 nM |
| NCI-H1836 (small cell lung carcinoma, suspension) | 0.987 | > 1020 nM | 0.961 | > 12.5 nM | 0.356 | 477 nM | 0.984 | > 2560 nM | 0.988 | > 10000 nM | 0.988 | > 2000 nM | 0.984 | > 1000 nM | 0.963 | > 2560 nM | 0.984 | > 16000 nM | 0.895 | > 256 nM | 0.987 | > 10000 nM | 0.987 | > 20000 nM | 0.35 | 118 nM | 0.782 | 59.4 nM |
| NCI-H1869 (lung squamous cell carcinoma, adherent) | 0.985 | > 1020 nM | 0.889 | > 12.5 nM | 0.636 | 3120 nM | 0.919 | > 2560 nM | 0.984 | > 10000 nM | 0.955 | > 2000 nM | 0.983 | > 1000 nM | 0.913 | > 2560 nM | 0.985 | > 16000 nM | 0.765 | 106 nM | 0.928 | > 10000 nM | 0.964 | > 20000 nM | 0.04 | < 20 nM | 0.962 | > 128 nM |
| NCI-H2135 (non-small cell lung carcinoma, adherent) | 0.972 | > 1020 nM | 0.99 | > 12.5 nM | 0.258 | 260 nM | 0.961 | > 2560 nM | 0.952 | > 10000 nM | 0.968 | > 2000 nM | 0.99 | > 1000 nM | 0.703 | 583 nM | 0.991 | > 16000 nM | 0.805 | 125 nM | 0.99 | > 10000 nM | 0.657 | 3360 nM | 0.029 | < 20 nM | 0.945 | > 128 nM |

Lines with a small IC50 respond at low doses; a fit beyond the top or the lowest dose is shown as a bound at that dose. The AUC spans the tested range (256-fold, ending at the top dose) of the same fit: 1 means no effect, lower means more sensitive. For some assays here: A top dose marked as inferred was derived from the fitted curves, not read from the paper. For some assays here: Drugs with an entry number were screened twice under separate entries, and the two screens often disagree.
